The record followed here is article PMC4336329 (PLoS ONE, 2015).

The structures appear in SMILES notation. The whole screen tested about 310,000 compounds, of which about 14,000 (4.5%) showed an effect of 50% or more. The effect is printed as a negative number. Some of the results follow.
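Also: peak tail current of the secondary pulse compared with the same well before compound.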

The test deals with human ether-à-go-go-related gene (hERG) potassium channel (human, UniProt Q12809). In words: primary screen, population patch clamp on CHO cells stably expressing hERG.
human ether-à-go-go-related gene (hERG) potassium channel, sequence (Q12809 whole entry, looked up): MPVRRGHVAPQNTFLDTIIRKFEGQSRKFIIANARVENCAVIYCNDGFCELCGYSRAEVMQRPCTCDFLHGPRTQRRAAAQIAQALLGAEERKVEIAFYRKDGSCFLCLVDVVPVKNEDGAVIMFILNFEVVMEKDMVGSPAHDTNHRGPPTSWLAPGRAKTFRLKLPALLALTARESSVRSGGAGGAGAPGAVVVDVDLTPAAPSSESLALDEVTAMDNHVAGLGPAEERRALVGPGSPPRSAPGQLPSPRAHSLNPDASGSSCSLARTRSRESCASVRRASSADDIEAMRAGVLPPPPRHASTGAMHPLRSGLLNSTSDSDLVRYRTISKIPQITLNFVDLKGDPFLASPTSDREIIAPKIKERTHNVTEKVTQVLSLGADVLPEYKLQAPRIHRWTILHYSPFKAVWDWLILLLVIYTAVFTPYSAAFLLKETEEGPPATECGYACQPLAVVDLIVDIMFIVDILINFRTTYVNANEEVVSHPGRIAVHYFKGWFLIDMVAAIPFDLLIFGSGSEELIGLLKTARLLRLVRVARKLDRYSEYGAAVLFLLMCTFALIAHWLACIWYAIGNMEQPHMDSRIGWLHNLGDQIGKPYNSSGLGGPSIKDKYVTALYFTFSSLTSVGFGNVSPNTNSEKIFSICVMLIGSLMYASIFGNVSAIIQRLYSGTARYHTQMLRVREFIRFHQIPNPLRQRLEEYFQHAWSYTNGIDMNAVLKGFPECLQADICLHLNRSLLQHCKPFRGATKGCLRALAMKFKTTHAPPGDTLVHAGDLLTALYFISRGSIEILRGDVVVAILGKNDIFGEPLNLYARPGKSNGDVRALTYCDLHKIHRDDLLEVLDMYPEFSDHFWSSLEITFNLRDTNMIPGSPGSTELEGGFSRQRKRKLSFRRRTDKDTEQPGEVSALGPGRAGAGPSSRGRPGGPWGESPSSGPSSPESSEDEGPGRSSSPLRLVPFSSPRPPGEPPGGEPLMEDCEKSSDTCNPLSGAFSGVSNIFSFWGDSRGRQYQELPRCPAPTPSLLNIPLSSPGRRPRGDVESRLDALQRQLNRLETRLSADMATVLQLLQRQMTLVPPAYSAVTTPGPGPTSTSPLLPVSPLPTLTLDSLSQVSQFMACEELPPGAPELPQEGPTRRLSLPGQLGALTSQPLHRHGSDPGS
As for `Cn1c(=S)[nH]c2[nH]c(=O)cnc2c1=O`, the “hERG current change (%, negative = inhibition) at 10uM” value is -2.04%.
With `Cc1cc(S(=O)(=O)N2CCCCC2)ccc1OCC(=O)N1CCOCC1` the figure was -2.34%; with `CN(CC(=O)Nc1cccc2ccccc12)C(=O)c1cccc(S(=O)(=O)N(C)C)c1`, -7.71%.
The result for `CCOC(=O)C1CCN(C(=O)c2ccc3nc(-c4ccc(OC)cc4)c(-c4ccc(OC)cc4)nc3c2)CC1` reads 3.82%.
On to `CS(=O)(=O)c1ccc2nc(NC(=O)Oc3ccccc3)sc2c1`, for which the “hERG current change (%, negative = inhibition) at 10uM” value came out at 12.5%.
`COc1cccc(CC(=O)OCC(=O)NC2CCCC2)c1`: the “hERG current change (%, negative = inhibition) at 10uM” value turned out to be 4.66%.
With `COC(=O)Nc1nc2ccc(C(=O)c3ccc(F)cc3)cc2[nH]1` the figure was 5.63%.
The result for `COc1ccc(CNC(=O)c2ccccc2SCC(=O)N2CCCC2)cc1OC` reads 7.71%.
On to `CC(=O)c1ccc(NC(=O)CN(c2c(C)cccc2C)S(C)(=O)=O)cc1`, for which the “hERG current change (%, negative = inhibition) at 10uM” value amounted to 15.5%.
The result for `CCOc1ccc(S(=O)(=O)N2c3ccccc3CC2C)cc1` (centres unmarked) reads 6.81%; that for `Cc1ccc(OCC(=O)NCc2ccccn2)c(Br)c1`, -3.9%; that for `CCOC(=O)N1CCN(C(=O)COc2ccc3c(c2)C(=O)CC(C)(C)O3)CC1`, 17.6%.
The result for `Cc1cc(Br)ccc1SCC(=O)NNC(=O)c1ccco1` reads -18.1%; that for `O=C(Nc1ccccc1)C1=C[C@@H](C2CC2)C[C@@H](OCc2ccc(CO)cc2)O1`, -20.9%; that for `CC(=O)N1C2CCCCC2S[C@H]2CCCCC21` (some centres unmarked), 18.9%.
With `CSc1nc(N2CCN(c3ccccc3Cl)CC2)c2ccccc2n1` the figure was 12.1%; with `O=C(CN1CCOCC1)NCc1ccccc1`, 17.4%; with `COc1cccc(-c2nc(CS(=O)CC(=O)NCc3ccccc3)c(C)o2)c1` (centres unmarked), -6.07%.
As to `CC(C)S(=O)(=O)CC(=O)c1ccc(Cl)cc1`, the “hERG current change (%, negative = inhibition) at 10uM” value amounted to 15%.
With `COc1ccc(-c2cc(C(F)(F)F)nc(SCCC(=O)N3CCOCC3)n2)cc1` the figure was -1.4%.
Consider `Nc1ccc(C(=O)NCCCSc2ccccc2)cc1[N+](=O)[O-]`, for which the “hERG current change (%, negative = inhibition) at 10uM” value is recorded as 2.99%.
The result for `CCN1CCN(CC(O)COCc2ccccc2)CC1.Cl` (centres unmarked) reads 29%; that for `Cc1oc2c(O)c(O)ccc2c(=O)c1-c1cnn(-c2ccccc2)c1`, -20.7%.
The result for `CCc1nnc(NC=C2C(=O)OC(C)(C)OC2=O)s1` reads 2.69%; that for `O=C(CCc1nc(-c2ccc(Cl)cc2)no1)NCc1ccccc1CN1CCOCC1`, -65.5%.
`CCCCC[C@H]1CN(CCc2ccccc2)C(=O)[C@@H]1CC(=O)NCc1ccc(OC)cc1`: the “hERG current change (%, negative = inhibition) at 10uM” value is -61.8%.
With `CC(C)Sc1nc2ccsc2c(=O)[nH]1`, the “hERG current change (%, negative = inhibition) at 10uM” value turned out to be 4.2%.
Turning to `COc1cccc(C(=O)N2CCCC(Nc3ccc(C)c(C)c3)C2)c1` (centres unmarked), the “hERG current change (%, negative = inhibition) at 10uM” value is reported as -0.188%.
Take `C/C(CCc1ccc2c(c1)OCO2)=N\N=C1\NC(=O)CC(C(=O)Nc2ccccc2)S1` (centres unmarked): the “hERG current change (%, negative = inhibition) at 10uM” value was -6.9%.
In the case of `Clc1ccc(-c2nnc(SCc3cn4ccsc4n3)n2CC2CCCO2)cc1` (centres unmarked), the “hERG current change (%, negative = inhibition) at 10uM” value is on record as -29.2%.
The result for `CCCCN1C=C(C(=O)OC)C(c2ccccc2Cl)C(C(=O)OC)=C1` reads -6.65%; that for `Cc1ccccc1C(=O)Oc1ccccc1N1C(=O)C2CC=CCC2C1=O` (centres unmarked), 0.103%.
With `COc1ccc(-c2nnn(Cc3ccccc3)n2)cc1OC` the figure was 2.97%; with `Cc1ccc(C2CN(C)CC2C(=O)c2ccc(F)cc2)cc1` (centres unmarked), -53.2%.
For the compound `COc1cc2c(cc1OC)CN(C(=O)c1ccc3nc[nH]c3c1)CC2`, the “hERG current change (%, negative = inhibition) at 10uM” value was -1.39%.
For `CCOC(=O)N1C2=NC(C(=O)OC)=C(C(=O)OC)[C@@H]3Nc4ccccc4[C@]23C[C@H]1C(=O)OC`, the “hERG current change (%, negative = inhibition) at 10uM” value was -6.95%.
The result for `COC(=O)c1[nH]c2c(c1C)C(=O)CC(c1cccc(OC)c1)C2` (centres unmarked) reads -7.83%.
For the compound `COc1ccc(/C=C/c2cc[n+](C(=O)Cc3ccccc3)cc2)cc1.[Cl-]`, the “hERG current change (%, negative = inhibition) at 10uM” value is reported as -51.2%.
Turning to `CCOC(=O)c1cn2nc(Oc3ccc(OC)cc3)ccc2n1`, the “hERG current change (%, negative = inhibition) at 10uM” value stood at 4.29%.
With `Cc1c(NC(=S)N/N=C/c2ccc(Br)cc2)c(=O)n(-c2ccccc2)n1C` the figure was 12%.
Regarding `COc1ccc2c(c1)C(=O)Cc1ccccc1O2`, the “hERG current change (%, negative = inhibition) at 10uM” value was 0.762%.
With `CCCCN(C1CCS(=O)(=O)C1)S(=O)(=O)c1ccc(C(C)C)cc1` (centres unmarked) the figure was 12.1%; with `COc1cccc(/C=N/NC(N)=S)c1OS(=O)(=O)c1ccccc1`, 9.82%; with `CCC(CCC(=O)Nc1cccc([N+](=O)[O-])c1)C(=O)O` (centres unmarked), 20.2%.
As for `Cc1cc(C)c(OCC(=O)OCCNC(=O)c2cccnc2)c(C)c1.Cl`, the “hERG current change (%, negative = inhibition) at 10uM” value was -17%.
The result for `COc1ccc(C)cc1Nc1c2c(nc3ccccc13)CCC2` reads -56.7%; that for `CCN(CC(=O)Nc1c(F)cccc1F)C(=O)C1CCN(C(=O)Nc2ccccc2)CC1`, 1.32%.
With `CSc1ccc(NC(=O)C(C)N2CCN(C)CC2)cc1.O=C(O)C(=O)O` (centres unmarked) the figure was -24%; with `CCCCNC(=O)[C@H]1C[C@H]1[C@@H](O)[C@H](CO)NC(=O)[C@H](COCc1ccccc1)NC(=O)OC(C)(C)C`, 21.5%.
The result for `CCOc1cc(C#N)ccc1OCC(=O)N1CCN(C(=O)c2cccs2)CC1` reads -67.7%; that for `Cn1nc(C(=O)Nc2ccc(S(=O)(=O)N3CCCCC3)cc2)ccc1=O`, -13.3%.
`CC(CN1CCOCC1)OC(=O)Cc1ccc(Cl)cc1.Cl` (centres unmarked): the “hERG current change (%, negative = inhibition) at 10uM” value is listed as -8.7%.
In the case of `COC(=O)c1ccc(NC(=O)CSc2nc3[nH]ncc3c(=O)[nH]2)cc1`, the “hERG current change (%, negative = inhibition) at 10uM” value is 14.3%.
With `O=C(CN(C(=O)Cn1nnc(-c2cccs2)n1)c1ccc2c(c1)OCCO2)NC1CCCCC1`, the “hERG current change (%, negative = inhibition) at 10uM” value is -13.2%.
With `COc1cc(C(CC(=O)Nc2ccc(Cl)cn2)N2Cc3ccccc3C2=O)cc(OC)c1OC` (centres unmarked) the figure was -68.1%; with `O=C(O)CC1Sc2nc3ccccc3n2C1=O` (centres unmarked), 8.05%.
